In all, about 310,000 compounds went through this assay and about 14,000 (4.5%) showed an effect of 50% or more. Effects have a minus sign here. This is one part of the list.
Target: human ether-à-go-go-related gene (hERG) potassium channel (human, UniProt Q12809)
Assay: primary screen, population patch clamp on CHO cells stably expressing hERG
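Further: peak tail current of the secondary pulse compared with the same well before compound.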

Chain of human ether-à-go-go-related gene (hERG) potassium channel (Q12809 whole entry, looked up): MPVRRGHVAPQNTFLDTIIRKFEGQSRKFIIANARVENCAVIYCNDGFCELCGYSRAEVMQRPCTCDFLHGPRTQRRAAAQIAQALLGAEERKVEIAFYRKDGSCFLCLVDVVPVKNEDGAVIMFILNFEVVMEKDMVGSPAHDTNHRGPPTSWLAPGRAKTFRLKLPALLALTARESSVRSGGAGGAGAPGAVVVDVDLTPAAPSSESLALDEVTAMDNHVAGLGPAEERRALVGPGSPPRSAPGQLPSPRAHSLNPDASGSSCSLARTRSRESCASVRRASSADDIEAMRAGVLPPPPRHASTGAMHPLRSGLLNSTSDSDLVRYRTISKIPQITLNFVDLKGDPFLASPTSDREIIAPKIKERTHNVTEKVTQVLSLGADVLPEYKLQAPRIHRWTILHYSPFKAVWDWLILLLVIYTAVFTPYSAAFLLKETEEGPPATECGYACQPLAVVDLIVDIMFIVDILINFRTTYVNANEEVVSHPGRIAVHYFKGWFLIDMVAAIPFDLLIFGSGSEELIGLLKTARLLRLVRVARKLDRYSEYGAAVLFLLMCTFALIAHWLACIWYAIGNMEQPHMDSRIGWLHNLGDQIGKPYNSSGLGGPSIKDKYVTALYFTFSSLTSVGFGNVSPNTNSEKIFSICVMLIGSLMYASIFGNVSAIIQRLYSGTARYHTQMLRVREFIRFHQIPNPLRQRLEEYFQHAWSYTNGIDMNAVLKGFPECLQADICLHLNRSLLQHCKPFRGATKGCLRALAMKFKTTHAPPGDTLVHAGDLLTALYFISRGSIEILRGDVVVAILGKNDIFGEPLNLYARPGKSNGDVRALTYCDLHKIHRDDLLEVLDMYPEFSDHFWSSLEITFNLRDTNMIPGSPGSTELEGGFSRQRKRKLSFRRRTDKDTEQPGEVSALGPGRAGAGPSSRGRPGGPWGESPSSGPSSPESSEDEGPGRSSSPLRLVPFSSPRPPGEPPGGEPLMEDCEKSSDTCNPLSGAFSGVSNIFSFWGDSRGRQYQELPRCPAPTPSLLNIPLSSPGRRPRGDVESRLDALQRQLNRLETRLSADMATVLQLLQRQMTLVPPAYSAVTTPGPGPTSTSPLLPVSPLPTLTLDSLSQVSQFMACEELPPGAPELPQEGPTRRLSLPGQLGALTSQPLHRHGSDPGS

| Compound | hERG current change (%, negative = inhibition) at 10uM |
| --- | --- |
| CN1CCN(CCc2nc3cc(NC(=O)COc4ccc(Cl)cc4)ccc3n2C)CC1 | -61% |
| CCN1/C(=C2\C(=O)N(C)C(=S)N2c2ccccc2)C=Cc2ccccc21 | -21.5% |
| O=C(Cc1n[nH]c(=O)c2ccccc12)Nc1cc(Cl)ccc1-n1cncn1 | -33.5% |
| Cc1cc(C)n(-c2ccc(C(=O)OCC(=O)Nc3ccccc3[N+](=O)[O-])cc2)n1 | -3.96% |
| CC1CCCN(C(=O)c2ccccc2OC2CCN(S(C)(=O)=O)CC2)C1 (stereo not shown) | 11.1% |
| Cc1ccc(-c2noc(CC(c3ccccc3)c3ccccc3)n2)cc1 | 5.26% |
| CC1(C)C2C/C(=N\O)C(C)(/[N+]([O-])=C/c3cccc([N+](=O)[O-])c3)CC21 (stereo not shown) | -10.7% |
| CCCOc1cccc(C(=O)N/N=C/c2coc3ccccc3c2=O)c1 | 9.86% |
| Nc1cccc(CCc2ccncc2)c1 | 6.19% |
| COc1ccc(C(=O)Nc2ccc(S(=O)(=O)NC(C)=O)cc2)cc1[N+](=O)[O-] | 19.6% |
| CN(C)NC(=O)C(NC(=O)c1ccc(N)cc1)C12CC3CC(CC(C3)C1)C2 (stereo not shown) | 13.9% |
| C[C@@H]1O[C@@H](OC[C@H]2O[C@@H](Oc3c(-c4ccc(O)c(O)c4)oc4cc(O)cc(O)c4c3=O)[C@H](O)[C@@H](O)[C@@H]2O)[C@H](O)[C@H](O)[C@H]1O | 26% |
| O=C(NCCC(c1ccccc1)c1ccccc1)c1cnccn1 | -12.5% |
| CC(=O)NC(Cc1c[nH]c2ccccc12)C(=O)Nc1ccc2c(c1)OCO2 (stereo not shown) | 5.65% |
| COc1ccc(-c2cc(C(=O)N3CCC4(CC3)OCCO4)c3ccccc3n2)cc1 | -16.4% |
| COc1ccc(OCCSc2nc(-c3ccccc3)cc(=O)[nH]2)cc1 | 20.4% |
| COC(=O)c1cc(OC)c(OCc2cc(C(=O)OC)oc2C)c(OC)c1 | 6.14% |
| O=Cc1cccn1-c1sc2c(c1C(=O)O)CCCC2 | 8.66% |
| Cc1ccc(N2CC(C(=O)NCc3n[nH]c(=O)c4ccccc34)CC2=O)cc1C (stereo not shown) | -13.5% |
| Cc1c(CC(=O)N[C@@H](C)C(=O)O)c(=O)oc2cc3oc4c(c3cc12)CCCC4 | 16.6% |
| C=CCn1c(SCC#N)nnc1-c1ccc2ncccc2c1 | -3.27% |
| CC(=O)Nc1ccc(NCC(=O)c2ccccc2)cc1 | 14.7% |

Reference: article PMC4336329 (PLoS ONE, 2015)
